# How the values were obtained:
# Type in all cases: in vivo
# Alternaia brassicicola = experiment: Test Example C: Alternaria sooty spot on cabbage; conditions: for Test C control value (Alternaria sooty spot on cabbage): preventive, control value class; for Test C (control value class, Alternaria sooty spot on cabbage): in vivo; for Test C (control value class) / Test C control value: Alternaria sooty spot on cabbage
# From the text: [Test Example C] Alternaria Sooty Spot on Cabbage
# Seeds of a test plant (cabbage variety: Shikidori) were planted followed by cultivating until the cotyledons extended.
# Puccinia recondita = experiment: Test Example E: Brown rust on wheat; conditions: for Test E control value (brown rust on wheat): preventive, control value class; for Test E (control value class, brown rust on wheat): in vivo
# From the text: [Test Example E] Brown Rust on Wheat
# [1] = tested on: Blumeria graminis f sp. hordei; experiment: Test Example D: Powdery mildew on barley; conditions: for Test D control value (powdery mildew on barley): preventive, control value class; for Test D (control value class, powdery mildew on barley): in vivo
# From the text: [Test Example D] Powdery Mildew on Barley
# After the sprayed dilutions were dried, conidia of Blumeria graminis f sp. hordei were inoculated to the plants by shaking off.
# Plasmopara viticola = experiment: Test Example G: Downy mildew on vine; conditions: for Test G control value (downy mildew on vine): 250 ppm spray (2.5 ml/pot), preventive, control value class; for Test G (control value class, downy mildew on vine): 250 ppm, sprayed 2.5 ml/pot before inoculation; for Test G (control value class): 250 ppm spray; for Test G control value: 250 ppm sprayed before inoculation
# From the text: [Test Example G] Downy Mildew on Vine
# Seeds of a test plant (grape variety: Neomuscat) were planted followed by cultivating until three to four first leaves appeared. […] After the sprayed dilutions were dried, a zoosporangia suspension (1-2×10^4 zoosporangia/ml) of Plasmopara viticola was inoculated to the plants by spraying.
# Botrytis cinerea = experiment: Test Example B: Gray mold on tomato; conditions: for Test B control value (gray mold on tomato): preventive, control value class; for Test B (control value class, gray mold on tomato): in vivo
# From the text: [Test Example B] Gray Mold on Tomato
# Seeds of a test plant (tomato variety: Oogata Fukuju) were planted followed by cultivating until three to five first leaves (true leaves) appeared.
# [2] = evaluated 7-10 days after inoculation
# [3] = brown rust on wheat, Puccinia recondita, 250 ppm spray
# [4] = powdery mildew on barley, 250 ppm spray
# [5] = downy mildew on vine, Plasmopara viticola, 7-10 days after inoculation
# [6] = gray mold on tomato, Botrytis cinerea, 250 ppm spray
# [7] = Downy mildew on vine, 7-10 days after inoculation
smiles,measurement,setting,value
Cn1c(-c2c(F)cccc2F)c(-c2cc(OCCC[Si](C)(C)C)ccc2Cl)ccc1=O [Compound 276],Test C control value (Alternaria sooty spot on cabbage),Alternaia brassicicola; 250 ppm spray,H (H shows more than 50% of control values)
same,Test E control value (brown rust on wheat),Puccinia recondita; 250 ppm spray,L (L shows 50% or less of control values)
same,Test D control value (powdery mildew on barley),[1]; 250 ppm spray,L (L shows 50% or less of control values)
same,Test G control value (downy mildew on vine),Plasmopara viticola; 7-10 days after inoculation,L (L shows 50% or less of control values)
same,Test B control value (gray mold on tomato),Botrytis cinerea; 250 ppm spray,L (L shows 50% or less of control values)
CCn1c(-c2c(F)cccc2F)c(-c2ccc(OC)cc2Cl)cc(Cl)c1=O [Compound 736],"Test C (control value class, Alternaria sooty spot on cabbage)",Alternaia brassicicola,H (H shows more than 50% of control values)
same,"Test E (control value class, brown rust on wheat)",Puccinia recondita,H (H shows more than 50% of control values)
same,"Test D (control value class, powdery mildew on barley)",[1],H (H shows more than 50% of control values)
same,"Test G (control value class, downy mildew on vine)",Plasmopara viticola; [2],H (H shows more than 50% of control values)
same,"Test B (control value class, gray mold on tomato)",Botrytis cinerea,H (H shows more than 50% of control values)
CCOc1cc(F)c(-c2c(-c3ccccc3Cl)cc(C)c(=O)n2CC)c(F)c1 [Compound 702],"Test C (control value class, Alternaria sooty spot on cabbage)",Alternaia brassicicola,H (H shows more than 50% of control values)
same,"Test E (control value class, brown rust on wheat)",Puccinia recondita,H (H shows more than 50% of control values)
same,"Test D (control value class, powdery mildew on barley)",[1],H (H shows more than 50% of control values)
same,"Test G (control value class, downy mildew on vine)",Plasmopara viticola; [2],H (H shows more than 50% of control values)
same,"Test B (control value class, gray mold on tomato)",Botrytis cinerea,H (H shows more than 50% of control values)
O=c1c(Cl)cc(-c2cc(Cl)cc(Cl)c2Cl)c(-c2c(F)cccc2F)n1CC(F)F [Compound 455],Test C (control value class),Alternaia brassicicola; 250 ppm spray,H (H shows more than 50% of control values)
same,Test E (control value class),Puccinia recondita; [3],H (H shows more than 50% of control values)
same,Test D (control value class),[1]; [4],H (H shows more than 50% of control values)
same,Test G (control value class),Plasmopara viticola; [5],L (L shows 50% or less of control values)
same,Test B (control value class),Botrytis cinerea; [6],H (H shows more than 50% of control values)
COc1cc(F)c(-c2c(-c3cccc(OC)c3Cl)cc(C)c(=O)n2C)c(F)c1 [Compound 672],"Test C (control value class, Alternaria sooty spot on cabbage)",Alternaia brassicicola,H (H shows more than 50% of control values)
same,"Test E (control value class, brown rust on wheat)",Puccinia recondita,H (H shows more than 50% of control values)
same,"Test D (control value class, powdery mildew on barley)",[1],H (H shows more than 50% of control values)
same,"Test G (control value class, downy mildew on vine)",Plasmopara viticola; [2],H (H shows more than 50% of control values)
same,"Test B (control value class, gray mold on tomato)",Botrytis cinerea,H (H shows more than 50% of control values)
CCN1C(=O)CCC(c2cccc(Cl)c2)=C1c1c(F)cccc1F [Compound 173],Test C control value,Alternaia brassicicola,H (H shows more than 50% of control values)
same,Test E control value,Puccinia recondita; Brown rust on wheat,H (H shows more than 50% of control values)
same,Test D control value,[1]; Powdery mildew on barley,H (H shows more than 50% of control values)
same,Test G control value,Plasmopara viticola; [7],H (H shows more than 50% of control values)
same,Test B control value,Botrytis cinerea; Gray mold on tomato,H (H shows more than 50% of control values)
CCN1C(=O)CCC(c2cc(OC)cc(OC)c2)=C1c1c(F)cccc1Cl [Compound 149],Test C control value,Alternaia brassicicola,H (H shows more than 50% of control values)
same,Test E control value,Puccinia recondita; Brown rust on wheat,H (H shows more than 50% of control values)
same,Test D control value,[1]; Powdery mildew on barley,H (H shows more than 50% of control values)
same,Test G control value,Plasmopara viticola; [7],H (H shows more than 50% of control values)
same,Test B control value,Botrytis cinerea; Gray mold on tomato,H (H shows more than 50% of control values)
COc1cc(OC)cc(C2=C(c3c(F)cccc3Cl)N(C)C(=O)CC2)c1 [Compound 163],Test C control value,Alternaia brassicicola,L (L shows 50% or less of control values)
same,Test E control value,Puccinia recondita; Brown rust on wheat,H (H shows more than 50% of control values)
same,Test D control value,[1]; Powdery mildew on barley,L (L shows 50% or less of control values)
same,Test G control value,Plasmopara viticola; [7],H (H shows more than 50% of control values)
same,Test B control value,Botrytis cinerea; Gray mold on tomato,H (H shows more than 50% of control values)
COc1cc(F)c(-c2c(-c3cc(OC)ccc3Cl)cc(Br)c(=O)n2C)c(F)c1 [Compound 723],"Test C (control value class, Alternaria sooty spot on cabbage)",Alternaia brassicicola,H (H shows more than 50% of control values)
same,"Test E (control value class, brown rust on wheat)",Puccinia recondita,H (H shows more than 50% of control values)
same,"Test D (control value class, powdery mildew on barley)",[1],H (H shows more than 50% of control values)
same,"Test G (control value class, downy mildew on vine)",Plasmopara viticola; [2],H (H shows more than 50% of control values)
same,"Test B (control value class, gray mold on tomato)",Botrytis cinerea,H (H shows more than 50% of control values)
CCn1c(-c2c(F)cccc2F)c(-c2ccc(Br)cc2)cc(Cl)c1=O [Compound 294],Test C control value (Alternaria sooty spot on cabbage),Alternaia brassicicola; 250 ppm spray,H (H shows more than 50% of control values)
same,Test E control value (brown rust on wheat),Puccinia recondita; 250 ppm spray,H (H shows more than 50% of control values)
same,Test D control value (powdery mildew on barley),[1]; 250 ppm spray,H (H shows more than 50% of control values)
same,Test G control value (downy mildew on vine),Plasmopara viticola; 7-10 days after inoculation,H (H shows more than 50% of control values)
same,Test B control value (gray mold on tomato),Botrytis cinerea; 250 ppm spray,H (H shows more than 50% of control values)
CCOc1ccc(Cl)c(-c2cc(Cl)c(=O)n(CC(F)F)c2-c2c(F)cccc2F)c1 [Compound 223],Test C control value (Alternaria sooty spot on cabbage),Alternaia brassicicola; 250 ppm spray,H (H shows more than 50% of control values)
same,Test E control value (brown rust on wheat),Puccinia recondita; 250 ppm spray,H (H shows more than 50% of control values)
same,Test D control value (powdery mildew on barley),[1]; 250 ppm spray,H (H shows more than 50% of control values)
same,Test G control value (downy mildew on vine),Plasmopara viticola; 7-10 days after inoculation,H (H shows more than 50% of control values)
same,Test B control value (gray mold on tomato),Botrytis cinerea; 250 ppm spray,H (H shows more than 50% of control values)
CC(=O)COc1ccc(Cl)c(-c2ccc(=O)n(C)c2-c2c(F)cccc2F)c1 [Compound 304],Test C control value (Alternaria sooty spot on cabbage),Alternaia brassicicola; 250 ppm spray,H (H shows more than 50% of control values)
same,Test E control value (brown rust on wheat),Puccinia recondita; 250 ppm spray,H (H shows more than 50% of control values)
same,Test D control value (powdery mildew on barley),[1]; 250 ppm spray,H (H shows more than 50% of control values)
same,Test G control value (downy mildew on vine),Plasmopara viticola; 7-10 days after inoculation,L (L shows 50% or less of control values)
same,Test B control value (gray mold on tomato),Botrytis cinerea; 250 ppm spray,H (H shows more than 50% of control values)
CCn1c(-c2c(F)cccc2F)c(-c2cccc(Cl)c2F)cc(C)c1=O [Compound 493],Test C (control value class),Alternaia brassicicola; 250 ppm spray,H (H shows more than 50% of control values)
same,Test E (control value class),Puccinia recondita; [3],H (H shows more than 50% of control values)
same,Test D (control value class),[1]; [4],H (H shows more than 50% of control values)
same,Test G (control value class),Plasmopara viticola; [5],L (L shows 50% or less of control values)
same,Test B (control value class),Botrytis cinerea; [6],H (H shows more than 50% of control values)
COc1ccc(Cl)c(-c2cc(Cl)c(=O)n(C(C)C)c2-c2c(F)cccc2F)c1 [Compound 413],Test C (control value class),Alternaia brassicicola; 250 ppm spray,L (L shows 50% or less of control values)
same,Test E (control value class),Puccinia recondita; [3],H (H shows more than 50% of control values)
same,Test D (control value class),[1]; [4],H (H shows more than 50% of control values)
same,Test G (control value class),Plasmopara viticola; [5],L (L shows 50% or less of control values)
same,Test B (control value class),Botrytis cinerea; [6],H (H shows more than 50% of control values)
"COc1ccc(Cl)c(C2=C(c3c(F)cccc3F)N(CC(F)F)C(=O)CC2)c1 [Compound 192, 5-(2-chloro-5-methoxyphenyl)-1-(2,2-difluoroethyl)-6-(2,6-difluorophenyl)-3,4-dihydropyridine-2(1H)-one]",Test C control value (Alternaria sooty spot on cabbage),Alternaia brassicicola; 250 ppm spray,L (L shows 50% or less of control values)
same,Test E control value (brown rust on wheat),Puccinia recondita; 250 ppm spray,H (H shows more than 50% of control values)
same,Test D control value (powdery mildew on barley),[1]; 250 ppm spray,H (H shows more than 50% of control values)
same,Test G control value (downy mildew on vine),Plasmopara viticola; 7-10 days after inoculation,L (L shows 50% or less of control values)
same,Test B control value (gray mold on tomato),Botrytis cinerea; 250 ppm spray,H (H shows more than 50% of control values)
O=c1ccc(-c2cccc(Cl)c2F)c(-c2c(F)cccc2F)n1CC(F)F [Compound 494],Test C (control value class),Alternaia brassicicola; 250 ppm spray,H (H shows more than 50% of control values)
same,Test E (control value class),Puccinia recondita; [3],L (L shows 50% or less of control values)
same,Test D (control value class),[1]; [4],H (H shows more than 50% of control values)
same,Test G (control value class),Plasmopara viticola; [5],L (L shows 50% or less of control values)
same,Test B (control value class),Botrytis cinerea; [6],L (L shows 50% or less of control values)
CCn1c(-c2c(F)cccc2F)c(-c2cc(OCC#N)ccc2Cl)cc(C)c1=O [Compound 801],Test C (control value class),Alternaia brassicicola; control value=100{1-(n/3)},H (H shows more than 50% of control values)
same,Test E (control value class),"Puccinia recondita; Brown rust on wheat, control value=100{1-(n/3)}",H (H shows more than 50% of control values)
same,Test D (control value class),"[1]; Powdery mildew on barley, control value=100{1-(n/3)}",H (H shows more than 50% of control values)
same,Test G (control value class),"Plasmopara viticola; Downy mildew on vine, 2.5 ml/pot, evaluated 7-10 days after inoculation",H (H shows more than 50% of control values)
same,Test B (control value class),"Botrytis cinerea; Gray mold on tomato, control value=100{1-(n/3)}",H (H shows more than 50% of control values)
COCOc1ccc(Cl)c(-c2cc(Cl)c(=O)n(CC(F)F)c2-c2c(F)cccc2F)c1 [Compound 222],Test C control value (Alternaria sooty spot on cabbage),Alternaia brassicicola; 250 ppm spray,H (H shows more than 50% of control values)
same,Test E control value (brown rust on wheat),Puccinia recondita; 250 ppm spray,H (H shows more than 50% of control values)
same,Test D control value (powdery mildew on barley),[1]; 250 ppm spray,H (H shows more than 50% of control values)
same,Test G control value (downy mildew on vine),Plasmopara viticola; 7-10 days after inoculation,H (H shows more than 50% of control values)
same,Test B control value (gray mold on tomato),Botrytis cinerea; 250 ppm spray,H (H shows more than 50% of control values)
